Measured values taken from PubChem BioAssay AID1745853 (National Center for Advancing Translational Sciences (NCATS), 2022).
“And” between values parts separate entries of the source, which are not always exact repeats. Equal values may be shown once. The list shows a part of the results. The main result of the screen is listed elsewhere. These columns were measured beside it and carry no call.

What was measured:
Assay in all cases: Primary Screen for Target Class Profiling of Small Molecule Inhibitors of Methyltransferases
[1] = molecular target: Glycine N-methyltransferase (Homo sapiens) (UniProt Q14749); settings: purified enzyme, MTase-Glo SAH luminescence; measured here: GNMT inhibition; at 40 µM; stronger effect = lower value
Outline: (§1)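 Each enzyme was reacted with SAM and its substrate, with compounds tested once at 40 uM; SAH formed was read by MTase-Glo luminescence.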

[2] = molecular target: Guanidinoacetate N-methyltransferase (Homo sapiens) (UniProt Q14353); settings: purified enzyme, MTase-Glo SAH luminescence; measured here: GAMT inhibition; at 40 µM; stronger effect = lower value
Outline: as §1

[3] = molecular target: Histamine N-methyltransferase (Homo sapiens) (UniProt P50135); settings: purified enzyme, MTase-Glo SAH luminescence; measured here: HNMT inhibition; at 40 µM; stronger effect = lower value
Outline: as §1

[4] = molecular target: Nicotinamide N-methyltransferase (Homo sapiens) (UniProt P40261); settings: purified enzyme, MTase-Glo SAH luminescence; measured here: NNMT inhibition; at 40 µM; stronger effect = lower value
Outline: as §1

[5] = molecular target: Phenylethanolamine N-methyltransferase (Homo sapiens) (UniProt P11086); settings: purified enzyme, MTase-Glo SAH luminescence; measured here: PNMT inhibition; at 40 µM; stronger effect = lower value
Outline: as §1
% is set by controls: 0 for no effect and ±100 for the full control effect.

Row | SMILES | activity change, negative = inhibition [1] [%] | activity change, negative = inhibition [2] | activity change, negative = inhibition [3] [%] | activity change, negative = inhibition [4] | activity change, negative = inhibition [5]
1 | CC(C)Cn1c(=O)c2ccccc2n2c(CCC(=O)NCc3ccc4c(c3)OCO4)nnc12 | -6.69 | 1.14% | 0.777 | -9.22% | -4.98%
2 | OC(CC1c2ccccc2-c2cncn21)C1CCCCC1 (stereo not drawn) | -10.3 | -12.4% | -6.64 | -26.6% | -16.9%
3 | COc1ccccc1CN1C(=O)CSc2c(c3ccccc3n2C)C1C(=O)NCc1ccccc1 (stereo not drawn) | 3.7 | 4.37% | 5.68 | -0.861% | 2.4%
4 | CCCC1=CC2=C(CO1)C(=O)C(C)(O)C(OC(=O)c1c(C)cc(OC)cc1O)C2 (stereo not drawn) | -0.905 | 5.69% | 3.2 | -7.7% | 3.42%
5 | COc1ccc(NC(=O)Cn2c(-c3ccc(Cl)cc3)nc(C)cc2=O)cc1OC | -2.89 | -3.87% | -1.72 | -3.83% | -22.3%
6 | C=C1C(=O)OC2CC(C)=C(C(C)CCCO[C@@H]3O[C@H](CO)[C@@H](O)[C@H](O)[C@H]3O)C(O)C12 (stereo partly drawn) | 0 | 9.12% | 9.21 | -2.81% | 7.56%
7 | CC(C)=CCCC1(C)/C=C/C(OC(=O)C=C(C)C)C(C)(O)/C=C/C(=O)/C(CO)=C\C1 (stereo not drawn) | -2.31 | 1.94% | 3.59 | -8.6% | -8.29%
8 | COc1ccc(C[C@H](N)C(=O)N[C@H]2[C@@H](O)[C@H](n3cnc4c(N(C)C)ncnc43)O[C@@H]2CO)cc1 | -3.18 | -10.6% and 3.91% | 9.51 | -11.8% and -7.18% | 2.36% and 4.67%
9 | COC1CN(c2cccc(F)c2)C12CCN(C(=O)NCC(C)C)CC2 (stereo not drawn) | -3.13 | -0.532% | -1.45 | -4.2% | -2.54%
10 | CN(C)C(=O)Nc1cc(-c2ccccc2)ccc1N(C)C | -4.15 | 1.89% | -2.36 | -17.9% | -7.58%
11 | O=c1c2ccccc2nc(SCc2ccccc2Cl)n1CCN1CCOCC1 | -1.25 | 0% | -2.49 | -15.1% | -2.92%
12 | CCn1cc(C(=O)N2C[C@@H](COC)[C@H](C(=O)NC)C2)cn1 | -1.03 | 1.77% | 2.12 | -6.44% | -0.546%
13 | COc1cc(O)cc(/C=C/c2ccc(O[C@@H]3O[C@H](CO)[C@@H](O)[C@H](O)[C@H]3O)cc2)c1 | -0.28 | -0.571% | 5.78 | -8.28% | 4.95%
14 | O=C1CCCN1c1ccc(CN2CC(=O)N(Cc3ccccc3F)c3ccccc3S2(=O)=O)cc1 | -4.34 | 0.938% | 7.32 | -5.69% | -0.18%
15 | CC1(C(=O)NCc2ccc(F)cc2)Cn2cnc(C(=O)NCCc3ccccc3)c2C(=O)N1C1CC1 (stereo not drawn) | -3.41 | 4.73% | -0.061 | -0.132% | -3.31%
16 | CCCCN1C(=O)c2cc(C(=O)Nc3cc(OC)cc(OC)c3)nn2CC1(C)C(=O)NC1CCCC1 (stereo not drawn) | 2.82 | 4.87% | -6.23 | -0.28% | 3.4%

Row | SMILES | activity change, negative = inhibition [1] [%] | activity change, negative = inhibition [2] | activity change, negative = inhibition [3] [%] | activity change, negative = inhibition [4] | activity change, negative = inhibition [5]
17 | COc1ccc2c(c1)CC[C@@H](CN(C)CC(=O)O)[C@H]2c1ccccc1 | 1.76 | -6.11% | 3.26 | -17.3% | -3.1%
18 | COc1c(C(CC(C)C)OC(C)=O)ccc(Oc2c(O)cc(C)cc2/C=C/C(C)=O)c1C(=O)O (stereo not drawn) | -3.98 | -4.74% | -1.72 | -17.8% | -2.11%
19 | CN1C(=O)[C@H]2CN(Cc3cn[nH]c3-c3ccc(F)cc3)C[C@H]2C1=O | -6.36 | 2.71% | 1.46 | -1.59% | 13.8%
20 | CCCCN1C(=O)c2cc(C(=O)Nc3cc(C)ccc3C)nn2CC1(C)C(=O)NC1CCCC1 (stereo not drawn) | 4.97 | 0% | -3.88 | 2% | 3.22%
21 | Cc1noc(C)c1C(=O)N1CCN(c2ccc(C=O)cc2)C(=O)C1 | -6.04 | -4.12% | -2.56 | -8.7% | -6.8%
22 | Cc1ccc(NS(=O)(=O)c2cc3c(cc2NC(C)CO)NC(=O)CC3)cc1C (stereo not drawn) |  | 9.77% |  | -7.1% | -5.6%
23 | CCOc1ccc(N(C(=O)c2ccc(C)cc2)S(=O)(=O)c2ccc3c(c2)n(C)c(=O)n3C)cc1 | -5.88 | 0% | -0.984 | -10.5% | -2.45%
24 | COCc1nc2c([nH]1)c(=O)n(C)c(=O)n2CC(C)C | 2.42 | 7.8% | 3.6 | -6.79% | 5.35%
25 | CCC(C)NC(=O)c1ccc2c(=O)n(C(C)C)c3n[nH]c(=O)n3c2c1 (stereo not drawn) | 0.571 | 0.803% | 6.9 | 7.07% | 1.61%
26 | C=C1C(=O)O[C@H]2C[C@@H](C)[C@@H]3CCC(=O)[C@@]3(C)C[C@H]12 | -5.92 | -5.51% | 3.64 | -12.4% | -8.01%
27 | Cc1[nH]c2ccccc2c1C1=C(NCCc2ccc(F)cc2)C(=O)N(C)C1=O | -2.61 | -1.67% | 3.21 | -30.4% | 0.291%
28 | Clc1ccc(-c2cnc([C@@H]3COCCN3Cc3ccccc3)[nH]2)s1 | -10.7 | -4.21% | -12.6 | -16.2% | -10.7%
29 | Nc1ccc(/C=C/C(=O)NCc2cc3cc(-c4ccc(C(=O)N5CCC(F)(F)CC5)cc4)cc(-c4ccc(F)cc4)c3o2)cn1 | -8.31 | -31.3% | 0.249 | -46.7% | -18.1%
30 | CCCn1c(=O)c2ccc(C(=O)NC(C)CC)cc2n2c(=O)n(CC(N)=O)nc12 (stereo not drawn) | 2.71 | 0% | 7.63 | 2.87% | 3.08%
31 | O=C(CCc1nnc2n(Cc3ccccc3Cl)c(=O)c3ccccc3n12)N1CCN(c2ccccc2)CC1 | -14.4 | -4.34% | -2.61 | -11% | -6.87%
